B1: M13-C06.G4.P.agly: full-length hinge-modified aglycosylated human gamma 4, kappa antibody with the binding domain of Fab M13-C06 (antibody)
heavy: EVQLLESGGGLVQPGGSLRLSCAASGFTFSIYRMQWVRQAPGKGLEWVSGISPSGGTTWYADSVKGRFTISRDNSKNTLYLQMNSLRAEDTAVYYCARWSGGSGYAFDIWGQGTMVTVSSASTKGPSVFPLAPCSRSTSESTAALGCLVKDYFPEPVTVSWNSGALTSGVHTFPAVLQSSGLYSLSSVVTVPSSSLGTKTYTCNVDHKPSNTKVDKRV[human IgG4 Fc with S228P T299A (EU numbers) not written out]
light: DIQMTQSPLSLSASVGDRVTITCQASRDIRNYLNWYQQKPGKAPKLLIYDASSLQTGVPSRFGGSGSGTDFSFTIGSLQPEDIATYYCQQFDSLPHTFGQGTKLEIKRTVAAPSVFIFPPSDEQLKSGTASVVCLLNNFYPREAKVQWKVDNALQSGNSQESVTEQDSKDSTYSLSSTLTLSKADYEKHKVYACEVTHQGLSSPVTKSFNRGEC
B2: M14-G11.G4.P: full-length human IgG4.P version of Fab M14-G11 (antibody, V domains shown)
VH: EVQLLESGGGLVQPGGSLRLSCAASGFTFSNYPMYWVRQAPGKGLEWVSRISSSGGRTVYADSVKGRFTISRDNSKNTLYLQMNSLRAEDTAVYYCARDRWSRSAAEYGLGGYWGQGTLVTVSS
VL: DIQMTQSPDSLAVSLGERATINCKSSQSVLYSSNNKNYLAWYQQKPGQPPKLLIYLASTRESGVPDRFSGSGSGTDFTLTISSLQAEDVAVYYCQQYYSTWTFGQGTKVEIK

Experiments:
[1] = system: association of IRS-1 with the p85 regulatory subunit of PI3K; experiment: Co-immunoprecipitation of IRS-1 with p85 in NSCLC cell lines; format: cell-based, human; conditions: 10 nM, 24 hours, 5% FBS
Method: Cell lysates were immunoprecipitated with an anti-p85 antibody and subjected to western blot analysis with anti-IRS-1 (top blot) and anti-p85 (bottom blot) antibodies (FIG. 23).
For this assay, human lung tumor cell lines A549, Calu-6, and NCI-1299 cells were purchased from ATCC and maintained in RPMI medium 1640 containing 10% fetal bovine serum (FBS). […] Cell lysates were prepared in 1% Triton X-100 lysis buffer from Cell Signaling Technology, Inc. (Danvers, Mass. USA)). For immunoprecipitation, anti-p85 antibody (Cat #06-649, Upstate Cell Signaling Solutions (now part of Millipore, Concord, Mass. (USA) was added to the lysate (4 ug of antibody per 1-2 mg of lysate) and incubated at 4° C. overnight. The immunocomplex was then captured by mixing with protein-G agarose beads for 2 hours at 4° C. The immunoprecipitates were washed with ice-cold lysis buffer and boiled in 2×LDS (Lithium Dodecyl Sulfate) sample buffer before separation by NUPAGE® Novex 4-12% Bis-Tris Gel electrophoresis (Invitrogen Corp., Carlsbad, Calif. (USA)), and transfer to nitrocellulose membranes. IRS-1 (Cat # 06-248, Upstate) and p85 (Cat # 06-649, Upstate) antibodies were purchased from Millipore and immunoblotting was performed according to the manufacturer's protocols.

[2] = target: T1, IGF-1R expressed on MCF-7 cells (Homo sapiens, UniProt P08069); experiment: Flow cytometry binding to wild type IGF-1R on MCF-7 tumor cells; conditions: full-length antibodies
T1 construct: wild type IGF-1R expressed on MCF-7 tumor cells; endogenous in cells; host or cells: MCF-7
Method: The ability of Fabs to bind to the wild type IGF-1R was determined by flowcytometry using MCF-7 tumor cell line.
MCF-7 cells (Human Breast Adenocarcinoma from NCI) were split 24 hours prior to the setup of the assay to obtain 70% confluent monolayer. Routinely, MCF-7 cell line was maintained within 20 passages. Cells were lifted with cell dissociation buffer (Gibco catalog #13151-014), counted, washed and adjusted to 1×10^6 cells/ml and one ml of cells were then added to each tube (12×75 mm tube Falcon catalog# 352054). Cells were pelleted and supernatant removed by centrifugation at 1200 rpm for 5 min and 100 μl of diluted antibodies were then added to the cell pellet. Purified Fabs were tested at a starting concentration of either 210 or 60 μg/ml with 1:3 dilutions in FACS buffer, down to 0.001 μg/ml. FACS buffer used throughout the assay was PBS (without Ca++/Mg++) containing 1% BSA (Sigma catalog# A-7906; Sigma-Aldrich Corp. (St. Louis, Mo., USA)) and 0.1% Sodium Azide (Sigma catalog #S2002). […]
Once samples have been run and geometric means determined, antibody concentration (X axis) vs. geometric mean (Y axis) was graphed to the log 10, using Graphpad Prism (Prism Graph) graphing program. […]
The binding activity of human antibodies to wild type IGF-1R expressed on tumor cells was determined by flow cytometry. […]

Molecule | inhibition of association of IRS-1 with p85 ([1]; A549) | inhibition of association of IRS-1 with p85 ([1]; Calu-6) | inhibition of association of IRS-1 with p85 ([1]; H1299) | binding to IGF-1R expressed on MCF-7 cells [2]
B1 | inhibited | not in Calu-6 | inhibited | concentration dependent binding
B2 | – | – | – | concentration dependent binding

— patent publication US20090291088A1, “THERAPEUTIC COMBINATIONS OF ANTI-IGF-1R ANTIBODIES AND OTHER COMPOUNDS” (Biogen Idec MA Inc., priority 2008, published 2009)
